Experimental data taken from PubChem BioAssay AID360 (National Center for Advancing Translational Sciences (NCATS), 2006).
Out of some 48,000 compounds screened, about 550 (1.1%) were called active. Roughly 4% stayed inconclusive and do not appear here. Cut-off read from the data, not from the text of the source: active = potency below about 15 µM; inconclusive = mostly about 16 µM to 33 µM; inactive = weaker than that. The list shows a part of the results.

Each molecule was assayed against Lysosomal acid glucosylceramidase (Homo sapiens) (UniProt P04062) (assay: Glucocerebrosidase). Details: purified enzyme, resorufin glucoside fluorescence (screen aimed at inhibitors), 20 min; series mostly up to 77 µM.
UniProt P04062, sequence (P04062 whole entry, looked up): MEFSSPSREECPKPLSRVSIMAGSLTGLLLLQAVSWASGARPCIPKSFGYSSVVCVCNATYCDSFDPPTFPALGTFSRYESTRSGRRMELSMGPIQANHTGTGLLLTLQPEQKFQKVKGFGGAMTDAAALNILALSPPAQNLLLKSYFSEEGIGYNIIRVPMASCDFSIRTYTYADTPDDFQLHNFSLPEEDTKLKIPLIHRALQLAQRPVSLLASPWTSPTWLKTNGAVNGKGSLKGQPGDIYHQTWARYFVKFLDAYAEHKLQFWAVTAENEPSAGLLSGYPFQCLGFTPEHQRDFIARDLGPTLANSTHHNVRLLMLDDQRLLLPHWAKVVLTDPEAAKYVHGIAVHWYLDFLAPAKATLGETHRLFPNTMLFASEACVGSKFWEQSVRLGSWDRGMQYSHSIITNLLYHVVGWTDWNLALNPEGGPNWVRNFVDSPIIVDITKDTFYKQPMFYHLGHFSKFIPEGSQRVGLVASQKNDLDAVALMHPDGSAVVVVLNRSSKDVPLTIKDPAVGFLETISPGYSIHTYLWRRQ
How it was run: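 Compounds titrated against 0.2 nM normal enzyme, 30 uM resorufin beta-D-glucopyranoside substrate, citrate/phosphate buffer with taurocholate and tween-20, pH 5.9. Reaction ran 20 min at room temperature; fluorescence (Ex 548/Em 600) gave AC50.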
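Note: the screen sought inhibitors.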
Potency is the fitted concentration of half-maximal effect.

Potency, inactive:
Cc1cc(=O)oc(C)c1C(=O)NCc1ccccn1 > 76.9 µM
CCCCC(=O)Nc1nnc(SCC(=O)N2CCN(c3ccccc3OC)CC2)s1 > 76.9 µM
CCCCCCN=CC1=C(O)CC(C)(C)CC1=O > 76.9 µM
CCN(CC)C(=O)CSc1nc2sc(C)c(C)c2c(=O)[nH]1 > 76.9 µM
COC(=O)c1cc(OC)c(OC)cc1NC(=O)CSc1nnc(-c2cccnc2)n1C > 76.9 µM
Cc1ccccc1CS(=O)(=O)CCC(=O)NCCCN1CCOCC1 > 76.9 µM
Cc1ccccc1OCC(=O)N(Cc1cccs1)C1CCS(=O)(=O)C1 (stereo not given) > 76.9 µM
CCOc1ccc(-c2nn3c(-c4ccccc4)nnc3s2)cc1 > 76.9 µM
CCOC(=O)C1(CC)NC(c2ccc(N(C)C)cc2)C2C(=O)N(C)C(=O)C21 (stereo not given) > 76.9 µM
Cc1cc(=O)oc2c(C)c(OCC(=O)N(C)C)ccc12 > 76.9 µM
Cc1cc(C)n(-c2cc(C)c(C)cc2Br)n1 > 76.9 µM
Cc1ccc(NC(=O)CSc2nnc(-c3ccncc3)n2C)cc1C > 76.9 µM
Cc1ccc(NC(=O)c2ccc(F)c(S(=O)(=O)N3CCOCC3)c2)cc1F > 76.9 µM
CCCCn1c(SCc2cc(=O)[nH]c3ccccc23)nc2c1c(=O)n(C)c(=O)n2C > 76.9 µM
C=CCOc1cccc(C2C(C(=O)c3ccc(C)o3)=C(O)C(=O)N2CCN(C)C)c1 (stereo not given) > 76.9 µM
O=c1[nH]c(CSc2nnc(COc3ccccc3)n2-c2ccccc2)nc2ccccc12 > 76.9 µM
Cc1noc(C)c1COC(=O)C1(c2cccc(F)c2)CCCC1 > 76.9 µM
Cc1cc(N(CC(=O)O)S(C)(=O)=O)ccc1Br > 76.9 µM
CCCCCC1CCC(C(=O)O)CC1 (stereo not given) > 76.9 µM
C/C(Cl)=C/CSc1nc2c(c(=O)[nH]c(=O)n2C)n1C(C)C > 76.9 µM
CNC(=O)c1nnn(Cc2ccccc2)c1NC(C)=O > 76.9 µM
Cc1[nH]c(=O)[nH]c(=O)c1S(=O)(=O)NCCOC12CC3CC(CC(C3)C1)C2 > 76.9 µM
COc1ccc(OC)c(C(c2nnnn2CCc2ccccc2)N2CCC(C(N)=O)CC2)c1 (stereo not given) > 76.9 µM
CCOC(=O)c1cnc(SCC(=O)Nc2nnc(CC)s2)nc1N > 76.9 µM
CCOC(=O)C1CCN(C(=O)c2c(-c3c(F)cccc3Cl)noc2C)CC1 > 76.9 µM
